Experimental data as given in the supplement of paper PMC11417369.
± gives the standard deviation of the averaged measurements. This is one part of the list.

test system: PfAP2-EXP AP2 domain (GST-tagged); experiment: gcPBM binding intensity (ln(normalized median fluorescence intensity)); higher = stronger DNA binding
Procedure, shortened: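 The binding buffer was 1× PBS containing 1% milk, 0.2 mg/ml BSA, 0.5% salmon testes DNA and 0.03% Triton X-100. In it, GST-tagged P. falciparum DNA-binding domains expressed in E. coli were applied for 1 h to an Agilent 4 × 180k array of primer-extended double-stranded 36-bp intergenic genomic probes plus negative controls. Binding intensity, read with Alexa488 anti-GST antibody and a 488 nm scan, is the highest Masliner-normalised natural-log median intensity across replicate spots of either probe orientation.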

Row | Sequence | gcPBM binding intensity (ln)
1 | AACAACTATTAATTTACACACATGTATTTATTTTAC [CACACA_site5683] | 8.73 ± 0.4
2 | AATAAGATATCTACAACACACATTTAATTTTTTTTT [CACACA_site1641] | 8.31 ± 0.38
3 | AATCATAAAGAACATATAATATATATATATATATAT [CACACA_negctrl_site316] | 10.1 ± 0.21
4 | AATGCATTGATTGCATTCAAAAAAAAAAAAAAAAAA [XGTACX_negctrl_site597] | 8.11 ± 0.47
5 | ATAAAAAAATAAAACACACACATATATATTATATAT [CACACA_site2810] | 8.53 ± 0.26
6 | TAAATAAAAAAACACACACACATATATATATATATA [CACACA_site2269] | 10.2 ± 0.25
7 | AATTGTCAGAGAATATGTACTTAAGTATTTATTGTT [XGTACX_site1947] | 8.52 ± 0.4
8 | AATATATGCTTTCGTTATATTAAATTCAATTTAATG [GTGCAC_negctrl_site76] | 8.56 ± 0.42
9 | TGTATTACGAAAAAATGTACAGAAAAAGAAACAAAA [XGTACX_site2777] | 9.11 ± 0.57
10 | TGGGATAGATCATTTACACACACAAAAAAAAAAAAA [CACACA_site2140] | 8.09 ± 0.48
11 | TTTGTCATAAGCAATGCATGTAAGTTTCTGACATTA [TGCATGCA_site1007] | 8.43 ± 0.38
12 | ATTTATAAAATTAATAGTACATATATTTATATATAT [XGTACX_site4173] | 8.305 ± 0.021
13 | TATTGCACAAAATAATTTTATTATACTTTATGTTAG [TGCATGCA_negctrl_site574] | 8.34 ± 0.35
14 | CAAAAATAAACTATAGTACACACTTATTATTATGAA [CACACA_site2702] | 8.43 ± 0.3
15 | TATGTTCATCATAGCACACATATATAAATTACAACA [CACACA_site3533] | 8.52 ± 0.38
16 | ATTTGGCATAGACACACACACACACGCACGCACATA [CACACA_site6424] | 8.63 ± 0.47
17 | ATTGTAATCATATGAAGTACTAATATATATTTTAAT [XGTACX_site8350] | 8.61 ± 0.3
18 | TTTTTATGTAGAATTTTTTTATTTTTTCAAAATGGA [CACACA_negctrl_site166] | 8.06 ± 0.59
19 | AATTTTAAAAATATAACACACATATATAAAATATAT [CACACA_site3610] | 8.36 ± 0.37
20 | AATGAAGAAAAAAAAAGTACATTATTTTTAAAACTT [XGTACX_site563] | 8.55 ± 0.26
21 | TTTTAAATAAAATATTGTACATTAAAATTGTAATAT [XGTACX_site2128] | 8.1 ± 0.33
22 | AAGCAAACATATTAATGTACACACACCCACACACAA [XGTACX_site5806] | 8.87 ± 0.33
23 | TAAGATAAATGATAAAGTACTTTTTTTTTTTAAATA [XGTACX_site2326] | 8.01 ± 0.38
24 | ATTATAAATATGTATATACACACTTTTAATATTCAT [CACACA_site9367] | 8.47 ± 0.33
